In PubChem BioAssay AID651820 (National Center for Advancing Translational Sciences (NCATS), 2012):
In all, about 340,000 compounds went through this assay and about 12,000 (3.5%) were called active. Inconclusive means that the source gave no clear call. Such entries were picked first, then a sample of the others. The call rests on the fitted dose curve; in most records, active means well fitted inhibition curve with a large enough effect; inconclusive means small, poorly fitted or top-dose-only effect, or another doubt; inactive means no such curve, though single readings can be large or run the other way. Potencies of inconclusive entries are left out as doubtful fits.

Test: qHTS Assay for Inhibitors of Hepatitis C Virus (HCV)
Settings: Huh7.5.1 HCVcc-Cre (HCVcc is cell-culture hepatitis C virus) infection, luciferase reporter, 44 h; series mostly up to 41.8 µM
Summary of the method: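 Cells (1,000/well) were plated 4 h before compound, then infected with HCVcc-Cre virus (~0.5 moi). After 44 h further culture, infection was read as luciferase luminescence following a 15 min substrate incubation at room temperature.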
Potency means the concentration at half of the fitted maximal effect; tags describe the fitted curve by direction and shape.

Compound	Potency
Cc1ccc(C(=O)N/C(=C/c2ccc(-c3ccc([N+](=O)[O-])cc3)o2)C(=O)NCCCN(C)C)cc1	inactive
COc1cc(C(=O)NCC(c2ccco2)N2CCc3ccccc32)cc(OC)c1OC (centres undefined)	inconclusive [inhibitor, full curve, poor fit]
COc1ccc(Oc2nc(-c3ccccc3)ncc2S(=O)(=O)c2ccccc2)cc1	inconclusive [inhibitor, partial curve, poor fit]
COc1ccccc1N(C)S(=O)(=O)c1ccc(C(=O)N(C)Cc2ccc(Cl)s2)cc1	inconclusive [inhibitor, single point]
CCC(=O)n1nc(-c2ccc(OC)cc2)nc1NCc1cccs1	inconclusive [inhibitor, single point]
CN(Cc1ccsc1)C(=O)CCc1nnc(Cc2c[nH]c3ccccc23)o1	inactive
CCCC(=O)Nc1nnc(SCC(=O)NC2CC2)s1	inactive
Fc1ccc(CSc2ncnc3c2ncn3C2CCCCO2)cc1 (centres undefined)	inconclusive [inhibitor, partial curve]
C=C1C(=O)O[C@@]23[C@H]1CC[C@@H](C)[C@@H]2CC[C@@]1(C)O[C@@H]31	active: 2.82 µM
COc1ccc(COc2ccc(S(=O)(=O)N3CCCC3)cc2C(N)=O)cc1F	inconclusive [inhibitor, partial curve]
N#Cc1ccc(C23OCCN2CCn2c3c3ccccc3[n+]2[O-])cc1 (centres undefined)	inconclusive [inhibitor, full curve]
NC(=O)NNC(=S)Nc1cccc2ccccc12	inconclusive [inhibitor, single point]
Cc1cc(C)n(CCc2nc(-c3ccc(F)cc3)cs2)n1	inconclusive [inhibitor, partial curve, poor fit]
COCCN(C(=O)COC(=O)c1ccc2[nH]c(C)c(C)c2c1)c1c(N)n(Cc2ccccc2)c(=O)[nH]c1=O	inconclusive [inhibitor, single point]
CC(C)CCNC(=O)c1cc(C(=O)c2cc(Br)ccc2O)cn(CCC(C)C)c1=O	inconclusive [inhibitor, partial curve]
NC(=O)CN1C(=O)C(=O)N(Cc2cccc(C(F)(F)F)c2)C1=O	inactive
Cc1cccc(NC(=O)c2cccc(S(=O)(=O)NCc3ccccc3)c2)n1	inactive
O=C(C[n+]1cccc(C(=O)Nc2ccccc2)c1)c1ccc([N+](=O)[O-])cc1	active: 11.2 µM
c1ccc(Cn2nnc3c(N4CCOCC4)ncnc32)cc1	inactive
